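Compound exposure: 48 hours, 5 concentrations, 96-well plates. GI50 = concentration required for 50% inhibition of growth.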 Certain results were filed several times, with different values. The other results are left out here. An entry can have further records. For some assays here: The tests behind the records often covered other concentration ranges, not given here; some values may only mark the edge of a range. Records carry a tag for their origin. The letters are not those of the source and start again with each entry. For some assays here: The records of an entry repeat one measurement (runs, samples, wells, individuals or studies).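 Definition used: TGI = concentration required for complete inhibition of growth.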
Tests used:
Experiment in all cases: inhibition of tumour cell growth, NCI panel, 48 h
CCRF-CEM leukemia = test system: CCRF-CEM leukemia
MOLT-4 leukemia = test system: MOLT-4 leukemia
EKVX NSCLC = test system: EKVX NSCLC
DMS 114 small cell lung = test system: DMS 114 small cell lung
SK-OV-3 ovarian = test system: SK-OV-3 ovarian
HCT-15 colon = test system: HCT-15 colon
SK-MEL-28 melanoma = test system: SK-MEL-28 melanoma
HOP-92 NSCLC = test system: HOP-92 NSCLC
TK-10 renal = test system: TK-10 renal
K-562 leukemia = test system: K-562 leukemia
OVCAR-8 ovarian = test system: OVCAR-8 ovarian
HT29 colon = test system: HT29 colon
UO-31 renal = test system: UO-31 renal
UACC-62 melanoma = test system: UACC-62 melanoma
NCI-H460 lung = test system: NCI-H460 lung
SNB-19 CNS = test system: SNB-19 CNS
HCT-116 colon = test system: HCT-116 colon
RXF 393 renal = test system: RXF 393 renal
KM12 colon = test system: KM12 colon
KM20L2 colon = test system: KM20L2 colon
HCC-2998 colon = test system: HCC-2998 colon
U251 CNS = test system: U251 CNS
OVCAR-3 ovarian = test system: OVCAR-3 ovarian
NCI-H522 lung = test system: NCI-H522 lung
M19-MEL melanoma = test system: M19-MEL melanoma
HOP-62 NSCLC = test system: HOP-62 NSCLC
786-0 renal = test system: 786-0 renal
OVCAR-4 ovarian = test system: OVCAR-4 ovarian

Structure (SMILES): O=C1NC2C(CC(O)C(O)C2O)c2cc3c(c(O)c21)OCO3 (stereo unspecified)
- GI50 (CCRF-CEM leukemia): 26.6 nM [sample A, 1 test] and < 11.6 nM [sample A, mean of 2 tests] and 1.52 µM [sample B, mean of 2 tests]
- TGI (CCRF-CEM leukemia): 196 nM [sample A, 1 test] and 38.3 nM [sample A, mean of 2 tests] and 9.51 µM [sample B, mean of 2 tests]
- GI50 (MOLT-4 leukemia): 21.8 nM, < 12.7 nM [sample A, mean of 2 tests] and 1.6 µM [sample B, mean of 2 tests]
- TGI (MOLT-4 leukemia): 88.5 nM, < 23.3 nM [sample A, mean of 2 tests] and 4.8 µM [sample B, mean of 2 tests]
- GI50 (EKVX NSCLC): 40.2 nM [sample A, 1 test] and 87.5 nM [sample A, mean of 2 tests] and 3.44 µM [sample B, 1 test]
- TGI (EKVX NSCLC): 168 nM [sample A, 1 test] and 377 nM [sample A, mean of 2 tests] and 14.3 µM [sample B, 1 test]
- GI50 (DMS 114 small cell lung): 37.5 nM, < 14.4 nM [sample A, mean of 2 tests] and 2.91 µM [sample B, mean of 2 tests]
- TGI (DMS 114 small cell lung): 260 nM, 61 nM [sample A, mean of 2 tests] and 13.8 µM [sample B, mean of 2 tests]
- GI50 (SK-OV-3 ovarian): 141 nM, < 21.2 nM [sample A, mean of 2 tests] and 913 nM [sample B, mean of 2 tests]
- TGI (SK-OV-3 ovarian): 639 nM, 191 nM [sample A, mean of 2 tests] and 16.7 µM [sample B, mean of 2 tests]
- GI50 (HCT-15 colon): 74.4 nM [sample A, 1 test] and 21.9 nM [sample A, mean of 2 tests] and 3.25 µM [sample B, mean of 2 tests]
- TGI (HCT-15 colon): 502 nM [sample A, 1 test] and > 40.6 µM [sample B, mean of 2 tests]
- GI50 (SK-MEL-28 melanoma): 41.4 nM, 14.3 nM [sample A, mean of 2 tests] and 2.54 µM [sample B, mean of 2 tests]
- TGI (SK-MEL-28 melanoma): 276 nM, 75.6 nM [sample A, mean of 2 tests] and 11.7 µM [sample B, mean of 2 tests]
- GI50 (HOP-92 NSCLC): 20.5 nM, < 10 nM [sample A, 1 test] and 456 nM, 2.41 µM [sample B, 1 test]
- TGI (HOP-92 NSCLC): 88.6 nM, 49.5 nM [sample A, 1 test] and 25.4 µM [sample B, 1 test]
- GI50 (TK-10 renal): 163 nM, 34.1 nM [sample A, mean of 2 tests] and 4.74 µM [sample B, mean of 2 tests]
- TGI (TK-10 renal): 678 nM, 381 nM [sample A, mean of 2 tests] and 52.5 µM [sample B, mean of 2 tests]
- GI50 (K-562 leukemia): 32 nM, < 12.6 nM [sample A, mean of 2 tests] and 1.81 µM [sample B, mean of 2 tests]
- TGI (K-562 leukemia): 291 nM, 54 nM [sample A, mean of 2 tests] and 11 µM [sample B, mean of 2 tests]
- GI50 (OVCAR-8 ovarian): 41.3 nM, < 16.8 nM [sample A, mean of 2 tests] and 2.65 µM [sample B, mean of 2 tests]
- TGI (OVCAR-8 ovarian): 321 nM, 235 nM [sample A, mean of 2 tests] and > 45.8 µM [sample B, mean of 2 tests]
- GI50 (HT29 colon): 54.8 nM, < 14.2 nM [sample A, mean of 2 tests] and 2.4 µM [sample B, mean of 2 tests]
- TGI (HT29 colon): 942 nM, 96.2 nM [sample A, mean of 2 tests] and 15.5 µM [sample B, mean of 2 tests]
- GI50 (UO-31 renal): 94.4 nM, 27 nM [sample A, mean of 2 tests] and 2.62 µM [sample B, mean of 2 tests]
- TGI (UO-31 renal): 415 nM, 114 nM [sample A, mean of 2 tests] and 16.1 µM [sample B, mean of 2 tests]
- GI50 (UACC-62 melanoma): 61.3 nM, 15.5 nM [sample A, mean of 2 tests] and 2.23 µM [sample B, mean of 2 tests]
- TGI (UACC-62 melanoma): 319 nM, 72.5 nM [sample A, mean of 2 tests] and 14 µM [sample B, mean of 2 tests]
- GI50 (NCI-H460 lung): 44.9 nM, < 12.1 nM [sample A, mean of 2 tests] and 1.79 µM [sample B, mean of 2 tests]
- TGI (NCI-H460 lung): 473 nM, 57.5 nM [sample A, mean of 2 tests] and 8.89 µM [sample B, mean of 2 tests]
- GI50 (SNB-19 CNS): 31.8 nM, < 10 nM [sample A, mean of 2 tests] and 2.05 µM [sample B, mean of 2 tests]
- TGI (SNB-19 CNS): 293 nM, 43.6 nM [sample A, mean of 2 tests] and 14.4 µM [sample B, mean of 2 tests]
- GI50 (HCT-116 colon): 33.1 nM, < 10.5 nM [sample A, mean of 2 tests] and 1.68 µM [sample B, mean of 2 tests]
- TGI (HCT-116 colon): 161 nM, 32 nM [sample A, mean of 2 tests] and 8.05 µM [sample B, mean of 2 tests]
- GI50 (RXF 393 renal): 26.8 nM [sample A, 1 test] and 85.2 nM [sample A, mean of 2 tests] and 2.96 µM [sample B, 1 test]
- TGI (RXF 393 renal): 138 nM [sample A, 1 test] and 262 nM [sample A, mean of 2 tests] and 16.2 µM [sample B, 1 test]
- GI50 (KM12 colon): 39.3 nM, < 11.6 nM [sample A, mean of 2 tests] and 1.66 µM [sample B, mean of 2 tests]
- TGI (KM12 colon): 282 nM, 74.5 nM [sample A, mean of 2 tests] and 11.9 µM [sample B, mean of 2 tests]
- GI50 (KM20L2 colon): < 10 nM [sample A, 1 test] and 53.6 nM [sample A, mean of 2 tests] and 2.74 µM [sample B, 1 test]
- TGI (KM20L2 colon): 82.4 nM [sample A, 1 test] and 694 nM [sample A, mean of 2 tests] and 43.5 µM [sample B, 1 test]
- GI50 (HCC-2998 colon): < 13.4 nM [sample A, mean of 2 tests] and 2.09 µM [sample B, mean of 2 tests]
- TGI (HCC-2998 colon): 59 nM [sample A, mean of 2 tests] and 6.71 µM [sample B, mean of 2 tests]
- GI50 (U251 CNS): 40.1 nM, < 11.8 nM [sample A, mean of 2 tests] and 1.33 µM [sample B, mean of 2 tests]
- TGI (U251 CNS): 457 nM, 92.4 nM [sample A, mean of 2 tests] and 6.52 µM [sample B, mean of 2 tests]
- GI50 (OVCAR-3 ovarian): 65.5 nM, < 15.3 nM [sample A, mean of 2 tests] and 2.68 µM [sample B, mean of 2 tests]
- TGI (OVCAR-3 ovarian): 385 nM, 61 nM [sample A, mean of 2 tests] and 10.6 µM [sample B, mean of 2 tests]
- GI50 (NCI-H522 lung): 44.5 nM [sample A, 1 test] and < 11.4 nM [sample A, mean of 2 tests] and 1.53 µM [sample B, mean of 2 tests]
- TGI (NCI-H522 lung): 328 nM [sample A, 1 test] and 26.4 nM [sample A, mean of 2 tests] and 4.52 µM [sample B, mean of 2 tests]
- GI50 (M19-MEL melanoma): 39.8 nM, < 12.7 nM [sample A, mean of 2 tests] and 2.35 µM [sample B, mean of 2 tests]
- TGI (M19-MEL melanoma): 252 nM, 49.1 nM [sample A, mean of 2 tests] and 9.9 µM [sample B, mean of 2 tests]
- GI50 (HOP-62 NSCLC): 48.2 nM [sample A, 1 test] and 15.6 nM [sample A, mean of 2 tests] and 3.29 µM [sample B, mean of 2 tests]
- TGI (HOP-62 NSCLC): 265 nM [sample A, 1 test] and 57.5 nM [sample A, mean of 2 tests] and 13 µM [sample B, mean of 2 tests]
- GI50 (786-0 renal): 53.7 nM, < 14.6 nM [sample A, mean of 2 tests] and 2.54 µM [sample B, mean of 2 tests]
- TGI (786-0 renal): 413 nM, 105 nM [sample A, mean of 2 tests] and 14.7 µM [sample B, mean of 2 tests]
- GI50 (OVCAR-4 ovarian): 32.1 nM, < 11.5 nM [sample A, mean of 2 tests] and 1.85 µM [sample B, mean of 2 tests]
- TGI (OVCAR-4 ovarian): 217 nM, 43.2 nM [sample A, mean of 2 tests] and 8.36 µM [sample B, mean of 2 tests]

Source: PubChem BioAssay (NCI)
